Experimental data taken from the supplement of paper PMC3724861.
The other results are listed elsewhere or left out.

What follows are sequences tested on T1, Caupolican (Caup) homeodomain DNA-binding domain (assay: PBM E-score (8-mer, recovered from the published 9-mer minima) (E-score (dimensionless, -0.5 to 0.5)); Drosophila protein; higher = stronger relative binding preference, active = 0.31 or more).
T1 sequence: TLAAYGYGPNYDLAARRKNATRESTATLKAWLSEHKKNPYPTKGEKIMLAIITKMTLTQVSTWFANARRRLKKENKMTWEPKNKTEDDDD
Description: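 Protein binding microarray (PBM): in vitro transcribed/translated Caupolican (Caup) homeodomain DNA-binding domain (residues 214-303) applied at 100 nM to a universal 8-mer PBM array (Agilent AMADID 015681). The 8-mer enrichment score (E-score, range -0.5 to 0.5) was computed, and each 9-mer score is the minimum E-score of its two constituent 8-mers. The E-score is the same for a 9-mer and its reverse complement; 0.31 is the stated binding threshold.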

Sequence | PBM E-score
TAGAGTCA | inactive: -0.00394
CAAGGAAA | inactive: -0.0152
ACTAGCGG | inactive: -0.0634
GGTGAAGA | inactive: -0.15
ATCGGACG | inactive: 0.0109
CTACAACA | active: 0.332
ACTATTGC | inactive: 0.0955
AAGTGAAA | inactive: 0.0805
GCGCGCCC | inactive: -0.265
GCGCACTA | inactive: -0.103
CCATGAAG | inactive: -0.0368
ATAGACGA | inactive: 0.0964
ATCAGCTA | inactive: 0.0859
AGGACCTG | inactive: -0.102
CGCTCACA | inactive: -0.08
AGTTCAGA | inactive: 0.0135
CTAGCCCA | inactive: -0.207
CTGGCGGA | inactive: -0.148
CGATGACA | inactive: 0.278
GAAACATA | inactive: 0.258
AGGATGTC | inactive: 0.259

Sequence | PBM E-score
ACAATAGC | inactive: 0.0519
GTGCGGCA | inactive: -0.195
ACTTAAGA | inactive: 0.0751
CCGTTTGA | inactive: -0.168
CCGTCTGA | inactive: -0.102
GGAACAAC | inactive: 0.196
ACGTTGGG | inactive: -0.0775
ATCCTGCC | inactive: -0.0993
GCTTACAC | inactive: 0.169
CCGCTCAC | inactive: -0.215
GGAGAGCC | inactive: -0.174
AACGTGTC | inactive: 0.257
GAGGTAAA | inactive: 0.0463
GAGGGAAC | inactive: -0.204
ACGGTATA | inactive: -0.0223
CCGTAACG | inactive: -0.1
TCAGGAGA | inactive: -0.0246
ATGACAAC | active: 0.375
GCTCAACA | inactive: 0.0489
AAGCGACT | inactive: 0.013
GTGGCGAA | inactive: -0.0979

Sequence | PBM E-score
ACAGTCGT | ≥ 0.0234
GAACAGCA | ≥ 0.189
CCGAGGAC | inactive: -0.0504
GAAACGTA | inactive: 0.0527
CGCGGCAC | inactive: -0.227
ACTTGCCT | inactive: 0.0567
CACGAAGC | inactive: -0.104
GATGCGAC | inactive: -0.0569
GTTTCCCA | inactive: -0.0325
AAAATTCC | inactive: -0.0299
CCGACTTC | inactive: -0.148
AGTTCCGA | inactive: -0.0262
ACTTCGTC | inactive: -0.0453
GCATTTGA | inactive: -0.06
ACGGGGTA | inactive: -0.0892
AAGACTCT | ≥ 0.0253
GGTTGTCA | active: 0.331
AGGACCTC | ≥ -0.0582
TGCATAAA | inactive: 0.0364
ACAATACT | ≥ 0.277
